Experimental data taken from publication PMC2792720, “Binding of NIR-conPK and NIR-6T to Astrocytomas and Microglial Cells: Evidence for a Protein Related to TSPO” (PLoS ONE, 2009).

Biological target: T1, TSPO (Mus musculus, UniProt P50637)
T1 construct: mitochondrial-enriched membranes from DBT cells were prepared by lysing cells with ice-cold homogenization buffer; endogenous in cells; host or cells: DBT mouse astrocytoma cells (mitochondrial-enriched membranes / homogenates), untreated or cytokine-treated
Experiment: Filtration radioligand binding assay, [^3H]-PK 11195 binding to DBT cell homogenates
Conditions: read-out: Ki, competition for [^3H]-PK 11195 binding
Experimental: Enriched membranes were prepared according to [28]. Briefly, mitochondrial-enriched membranes from DBT cells were prepared by lysing cells with ice-cold homogenization buffer (50 mM Tris, 1 mM EDTA and 3 mM MgCl2), followed by dounce homogenization (five gentle strokes). Homogenates were centrifuged (40,000×g, 15 min, 4°C) and cell pellet resuspended in 0.5 ml homogenization buffer, re-homogenized by dounce (five gentle strokes while on ice) and centrifuged again (40,000×g, 15 min, 4°C). Cell pellets were stored at −80°C until further use. Radioligand binding assays were performed in silanized glass test tubes (Kimble Glass Inc.). […] Five ml of Ecoscint XR scintillation fluid (National Diagnostics, Atlanta, GA) was added, followed by 10 sec vortexing and ∼18 hrs incubation at room temperature prior to determining the radioactivity with a scintillation counter (PerkinElmer, Boston MA).
Data are expressed as n = number of determinations (three per independent experiment). Statistical analysis, Kd and Ki values were calculated using non-linear regression with a one binding site hyperbola, where X is the concentration of the ligand, Y is specific binding and Bmax and Kd are determined using this equation: Y = Bmax X/Kd+X calculated by GraphPad Prism 4.

SMILES: CCC(C)N(C)C(=O)c1cc2ccccc2c(-c2ccccc2Cl)n1 (stereo not shown) [PK 11195]
- Ki: 2 nM [passage A] and 41 nM [passage B]

A number of entries come with more than one value. The other results are left out here. An entry can have further records. The records of an entry read as repeated measurements on other runs, samples or individuals. A tag in brackets gives the origin of a value. A, B and so on number the origins entry by entry.
